Kd data for 1 molecule are collected here from patent EP4682164A1 (Curogen Technology Co., Ltd., dated 2026).

The target in test [1] is T1, wild-type IL-17RA (wtIL-17RA) (human, UniProt Q96F46 33-320, limits assumed).
T1 construct: also called IL-17RA wild type
Nature of the test: binding affinity analysis of Table 12 (Octet BLI as described in Example 5).

Test [2] deals with T2, wild-type IL-17RC (wtIL-17RC) (human, UniProt Q8NAC3 21-538, limits assumed).
T2 construct: also called IL-17RC wild type
T2 sequence (looked up): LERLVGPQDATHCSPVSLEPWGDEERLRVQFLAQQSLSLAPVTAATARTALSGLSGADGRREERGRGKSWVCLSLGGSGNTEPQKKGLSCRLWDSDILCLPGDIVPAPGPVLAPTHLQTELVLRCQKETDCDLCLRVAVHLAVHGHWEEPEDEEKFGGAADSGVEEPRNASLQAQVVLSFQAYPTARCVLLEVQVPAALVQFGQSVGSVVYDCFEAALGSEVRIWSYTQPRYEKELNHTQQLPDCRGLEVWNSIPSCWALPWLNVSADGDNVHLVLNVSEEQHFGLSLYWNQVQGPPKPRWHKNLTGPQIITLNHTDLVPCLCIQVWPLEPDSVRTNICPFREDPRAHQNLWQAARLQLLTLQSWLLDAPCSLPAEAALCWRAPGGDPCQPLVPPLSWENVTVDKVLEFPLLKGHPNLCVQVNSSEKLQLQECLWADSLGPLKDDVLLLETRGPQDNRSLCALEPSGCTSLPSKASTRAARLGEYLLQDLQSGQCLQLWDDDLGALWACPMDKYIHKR
The description is as above.

B1: human IL-17A (IL-17AA homodimer) (ligand)
chain: not shown
notes: also called hIL-17A; hIL-17AA
Consider B1, for which the Kd in test [1] stood at 0.7 nM; in test [2], 0.4 nM.
